# Assay results as given in PubChem BioAssay AID686979 (National Center for Advancing Translational Sciences (NCATS), 2013).
# Where “and” joins values, the source holds several entries; their conditions need not be identical. Identical values can stand only once. Among all 420,000 compounds or so, about 50,000 (12%) were called active. Inconclusive means that the source gave no clear call. Such entries were picked first, then a sample of the others. Calls follow the shape of the dose curve; as a rule, active = well fitted inhibition curve with a large enough effect; inconclusive = small, poorly fitted or top-dose-only effect; inactive = flat fitted curve, though single readings scatter. Potencies of inconclusive entries are doubtful fits and often do not repeat.
# Assay: qHTS for Inhibitors of human tyrosyl-DNA phosphodiesterase 1 (TDP1): qHTS in cells in presence of CPT; also: nearly all actives have a fitted effect of over 55% in size
# Settings: chicken DT40 Tdp1-/-;hTDP1 cells + 20 nM CPT, ATP luminescence, 48 h; activity change, negative = growth inhibition: at 46.2 µM (top of the series) unless noted
# How it was run: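 Chicken DT40 Tdp1-/- cells stably complemented with human TDP1 were seeded at 400 cells/well in medium containing 20 nM camptothecin, exposed to pin-transferred compounds, and grown at 37 °C for at least 48 hr. Viability was read as ATP luminescence.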
# % is scaled to controls: 0 for no effect and ±100 for the full control effect; potency is read from the fitted curve at half-maximal effect; tags tell the direction and shape of the fitted curve.
SMILES,Potency,"activity change, negative = growth inhibition"
CN1CCCC1c1ccc(=O)[nH]c1 (stereo not drawn),inactive,–
O=C(c1cc(C(=O)NCc2ccc(Cl)cc2)c(=O)n(Cc2ccc(Cl)cc2)c1)c1cc(F)ccc1O,"inconclusive: 25.9 µM [inhibitor, single point]",–
CCCCCCC(C)OC(=O)COc1ccc(Cl)cc1Cl (stereo not drawn),inactive,–
CC12CCC3c4ccc(OP(=O)(N5CC5)N5CC5)cc4CCC3C1CCC2=O (stereo not drawn),active: 14.6 µM,–
CCOC(=O)c1c(N)n(Cc2ccco2)c2nc3ccccc3nc12,"inconclusive: 16.4 µM [inhibitor, partial curve, poor fit]",–
O=C(NN=Cc1ccc(O)c(O)c1)c1ccccc1,active: 23.1 µM,–
CCc1cc2c(s1)NC(=O)CN=C2c1cccs1,"inconclusive: 29.1 µM [inhibitor, single point]",–
Cc1ccc(C)c(NP(=O)(Oc2ccccc2)Oc2ccccc2)c1,"inconclusive: 18.4 µM [inhibitor, single point]",–
c1ccc(N2CCC3(CCNCC3)CC2)nc1,active: 18.4 µM,–
C=CCn1cc(C=C2C(=O)NC(=O)NC2=O)c2ccccc21,inactive,–
COc1cccc(-n2c(O)c(C=NCc3ccc4c(c3)OCO4)c(=O)[nH]c2=O)c1,–,inconclusive: -31.6% [inhibitor]
CNCC(C)c1ccccc1 (stereo not drawn),inactive,–
O=C(/C=C/C=C/c1ccccc1)CC1(O)C(=O)Nc2ccccc21 (stereo not drawn),"inconclusive: 29.1 µM [inhibitor, single point]",–
O=P(OC1CCCCC1)(OC1CCCCC1)C(O)c1c(Cl)cccc1Cl (stereo not drawn),"inconclusive: 29.1 µM [inhibitor, single point]",–
Cc1ccc(-c2cc(C(F)F)n3ncc(C(=O)N4CCc5ccccc5C4)c3n2)cc1,"inconclusive: 29.1 µM [inhibitor, single point]",–
CCC(C)N1CCN(C(=O)Cc2ccccc2)CC1 (stereo not drawn),inactive,–
Cc1ccc2c(c1)c(C1=c3ccccc3=NC1=O)c(O)n2C,active: 4.61 µM,–
CC1=C(C(=O)O)N2C(=O)C(NC(=O)CCCC(=O)O)C2SC1 (stereo not drawn),inactive,–
COC(=O)C1=C(c2ccc(C(C)=O)cc2)C[C@@H]2CC[C@H]1N2C(=O)NC1CCCCC1,"inconclusive: 29.1 µM [inhibitor, single point]",–
CC(=O)c1ccc2c(c1)N(CCCN1CCN(CCO)CC1)c1ccccc1S2,"inconclusive: 26.6 µM [inhibitor, single point]",–
CNS(=O)(=O)c1cc(NC(=O)c2cccc3cccnc23)ccc1C,active: 23.1 µM,–
COc1ccc(-c2cc(=Nc3cccc(C(=O)O)c3)c3cc(C)ccc3o2)cc1,"inconclusive: 29.1 µM [inhibitor, single point]",–
O=CC=O,inactive,–
CCCc1cc(N2CCN(c3ccc(OC)cc3)CC2)n2cnnc2n1,active: 16.4 µM,–
CN(C)CC1CCCCC1OC(=O)c1ccc(Cl)c(Cl)c1 (stereo not drawn),"inconclusive: 25.9 µM [inhibitor, single point]",–

SMILES,Potency,"activity change, negative = growth inhibition"
Cc1cccc(CCNCc2cc3cc(C)cc(C)c3[nH]c2=O)c1,"inconclusive: 25.9 µM [inhibitor, partial curve, poor fit]",–
C[C@]12CC[C@H](O)C[C@H]1CC[C@@H]1[C@@H]2CC[C@]2(C)[C@@H](C3=CC(=O)OC3)CC[C@]12O,"inconclusive: 29.1 µM [inhibitor, single point]",–
Cn1c(O)c(/C=N/NC(=O)c2ccncc2)c(=O)n(C)c1=S,"inconclusive: 29.1 µM [inhibitor, single point]",–
CC1CN=C(NCc2ccccc2)S1 (stereo not drawn),inactive,–
CN1CCC(N(C)c2ncnc3ccc(Br)cc23)CC1,"inconclusive: 29.1 µM [inhibitor, single point]",–
COc1ccc(Cn2c(=O)oc3ccc(C)cc32)cc1OC,active: 14.6 µM,–
CN1C2CCC1CC(OC(c1ccc(F)cc1)c1ccc(F)cc1)C2 (stereo not drawn),active: 6.51 µM,–
COC(=O)C(O)(c1ccc(N(C)C)cc1)C(F)(F)F (stereo not drawn),inactive,–
CSc1ncc(CN2CCCC(C(=O)c3cccc(Cl)c3)C2)cn1 (stereo not drawn),active: 20.6 µM,–
COC(=O)C1=C(c2cc3ccccc3o2)C[C@@H]2CC[C@H]1N2C(=O)NCc1ccc(C(F)(F)F)cc1,"inconclusive: 23.1 µM [inhibitor, single point]",–
O=C(O)CC[N+](=O)[O-],inactive,–
O=C1NC[C@H](CCCCN2C[C@@H](Cc3ccccc3)N(CCC3CCCCC3)C(=O)C2=O)N(CCC2CCCCC2)C1=O,"inconclusive: 29.1 µM [inhibitor, single point]",–
O=c1[nH]c(=O)n(Cc2ccc(F)cc2)c(O)c1/C=N/Nc1ccccc1,inactive,–
COC1=CC(=O)O[C@@H](/C=C/c2ccccc2)C1,inactive,–
CN1CCN(c2cc([N+](=O)[O-])ccc2Cl)CC1,inactive,–
CCCCC(C)C(OC(=O)CC(CC(=O)O)C(=O)O)C(CC(C)CC(O)CCCCC(O)CC(O)C(C)N)OC(=O)CC(CC(=O)O)C(=O)O (stereo not drawn),"inconclusive: 11.6 µM [inhibitor, partial curve]",–
O=C1NCN(c2ccccc2)C12CCN(CCCOc1ccc(F)cc1)CC2,"inactive and inconclusive: 11.2 µM [inhibitor, partial curve] and inconclusive: 16.4 µM [inhibitor, partial curve, poor fit]",–
Cc1ccc2[nH]c(=S)n(-c3cccnc3)c(=O)c2c1,inactive,–
COc1ccc(-n2nnnc2C(CCc2ccccc2)N2CCC(n3c(=O)[nH]c4ccccc43)CC2)cc1 (stereo not drawn),"inconclusive: 16.4 µM [inhibitor, single point]",–
CC(C)(C)C(=O)c1cn(Cc2ccccc2)c2ccccc12,"inconclusive: 29.1 µM [inhibitor, single point]",–
COc1ccc(C(=O)Nc2ccc(-c3nc4ccccc4s3)cc2C)cc1Cl,"inconclusive: 29.1 µM [inhibitor, single point]",–
Cc1ccc(C(O)P(=O)(OC2CCCCC2)OC2CCCCC2)cc1 (stereo not drawn),"inconclusive: 29.1 µM [inhibitor, single point]",–
CN(Cc1ccccc1)C(=O)Cn1c(=O)oc2cc(S(=O)(=O)NCc3ccccc3)ccc21,active: 14.6 µM,–
CP(=O)(Nc1ccc(Cl)cc1)c1nc2c(s1)CCCC2 (stereo not drawn),"inconclusive: 8.2 µM [inhibitor, partial curve]",–
CCCC1=Nc2cc(C(=O)NCCc3ccc(OC)cc3OC)ccc2Sc2ccccc21,active: 18.4 µM,–

SMILES,Potency,"activity change, negative = growth inhibition"
CN(C)P(=O)(CCl)Nc1ccccc1 (stereo not drawn),inactive,–
COc1ccc(CCNC(=O)c2ccc3c(c2)N(Cc2cccc(Cl)c2)C(=O)CS3)cc1OC,active: 20.6 µM,–
CCOC(=O)[C@]12Cc3ccccc3[C@H]1N(Cc1ccccc1)C(=O)c1cc(OC)ccc12,"inconclusive: 29.1 µM [inhibitor, single point]",–
OC1(c2ccc(F)cc2)CC2CCC(C1)N2Cc1nnnn1C1CCCCC1 (stereo not drawn),inactive,–
C=CCn1c(O)c(/C(C)=N/N2CCCCC2)c(=O)[nH]c1=O,inactive,–
N#CCCn1cc(C(=O)O)c(-c2cccc([N+](=O)[O-])c2)n1,inactive,–
COc1ccc(C(=O)C23CN4CN(CN(C4)C2)C3)cc1,"inconclusive: 29.1 µM [inhibitor, single point]",–
COc1ccc(-c2cc(=NCCCCCC(=O)O)c3cc(C)ccc3o2)cc1,"inconclusive: 18.4 µM [inhibitor, single point]",–
Cc1ccnc(-n2c(C)cc(/C=C3\C(=O)NC(=S)N(C)C3=O)c2C)c1,"inconclusive: 18.4 µM [inhibitor, partial curve]",–
O=C(C1CCCN(S(=O)(=O)c2cccc3nsnc23)C1)N1CCC2(CC1)OCCO2 (stereo not drawn),inactive,–
O=C(NCC(c1ccco1)N1CCCC1)c1cccc(S(=O)(=O)N2CCc3ccccc32)c1 (stereo not drawn),active: 18.4 µM,–
COc1ccc(NC(=O)CCc2nc(C3=CCN(Cc4cccc(C)c4)CC3)no2)c(OC)c1,active: 16.4 µM,–
O=C1NC(=O)C(=Cc2ccc(Oc3ccc([N+](=O)[O-])cc3)cc2)C(=O)N1,"inconclusive: 29.1 µM [inhibitor, single point]",–
Clc1ccccc1-c1cncnc1NCCc1cnc[nH]1,"inconclusive: 20.6 µM [inhibitor, single point]",–
COC(=O)C12OCC34C(CC5C(C)=C(O)C(=O)CC5(C)C3C(O)C1O)OC(=O)C(OC(=O)/C=C(\C)C(C)C)C24 (stereo not drawn),active: 0.0411 µM,–
NS(=O)(=O)c1ccc(CCNC(=O)c2ccc(Cl)c(S(=O)(=O)N3CCCCC3)c2)cc1,"inconclusive: 29.1 µM [inhibitor, single point]",–
CN1CC(C(=O)c2ccc(Cl)cc2)C(c2ccc(Cl)cc2Cl)C1 (stereo not drawn),"inconclusive: 29.1 µM [inhibitor, single point]",–
COc1ccc(OC)c(CCNCc2c(C(=O)O)c(C)n(Cc3ccc(F)cc3Cl)c2C)c1,"inconclusive: 29.1 µM [inhibitor, single point]",–
CCOC(=O)C1(CCOc2ccccc2)CCN(C(C)CSC)CC1 (stereo not drawn),"inconclusive: 23.1 µM [inhibitor, single point]",–
N#CCn1c(CCl)nc2ccccc2c1=O,active: 4.61 µM,–
Cc1ccc(N2C(=O)NC(=O)/C(=C\c3cc(C)n(-c4sc5c(c4C#N)CCCC5)c3C)C2=O)cc1,"inconclusive: 16.4 µM [inhibitor, single point]",–
Cc1ncc(CN2CCCC(C(=O)c3ccc(C(C)(C)C)cc3)C2)s1 (stereo not drawn),active: 20.6 µM,–
CCCN(C/C=C\I)[C@@H]1CCc2ccc(O)cc2C1,"inconclusive: 26.6 µM [inhibitor, partial curve, poor fit]",–
